According to PubChem BioAssay AID2546 (National Center for Advancing Translational Sciences (NCATS), 2010):
The campaign covered roughly 310,000 compounds. About 11,000 (3.5%) were called active. The inconclusive results got no clear call from the source; some entries with a clear call stand among them for comparison. Calls follow the shape of the dose curve; as a rule, active = well fitted inhibition curve with a large enough effect; inconclusive = small, poorly fitted or top-dose-only effect, or effect the other way; inactive = flat fitted curve, though single readings scatter. Potencies of inconclusive entries are left out as doubtful fits.

Assay: VP16 counterscreen qHTS for inhibitors of ROR gamma transcriptional activity;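 also: Gal4-VP16 expression switched on by copper sulfate through the metallothionein promoter; nearly all actives have a fitted effect of over 50% in size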
Conditions: Drosophila S2 Gal4-VP16 UAS-luciferase, luminescence, 20 h; activity, negative = inhibition: at 53.6 µM (top of the series)
% is scaled to controls: 0 for no effect and ±100 for the full control effect; potency is read from the fitted curve at half-maximal effect; tags tell the direction and shape of the fitted curve.

| SMILES | activity, negative = inhibition | Potency |
| --- | --- | --- |
| COc1ccc(OC)c(CCNC(=O)c2ccc3c(=O)[nH]c4c(C(=O)NC(C)C)sc(=S)n4c3c2)c1 | inactive: -22.5% | – |
| O=C(c1cccc(F)c1)N1CCC[C@@]2(CCN(c3ccccn3)C2)C1 | inactive: 1.19% | – |
| Cc1cccc2cc(/C=N/NC(=O)c3ccccc3O)c(Cl)nc12 | – | inconclusive [inhibitor, single point] |
| Cc1cccc2cc(CN(C(=S)NCC(C)C)C3CCCC3)c(=O)[nH]c12 | – | inconclusive [inhibitor, single point] |
| O=C(O)c1ccc(N/N=C/c2ccc(-c3ccccc3Cl)o2)cc1 | – | inconclusive [inhibitor, partial curve] |
| CC(=N/O)/C(C)=N\NC(=O)c1ccccn1 | – | active: 5.01 µM |
| CC(C)COC(=O)NCCOC(=O)Nc1cccc(Cl)c1 | inactive: -11.9% | – |
| CCc1nn(C(CC)C(=O)NCCc2ccc(OC)cc2OC)c(=O)c2cc3occc3n12 (stereo not given) | inactive: 2.1% | – |
| O=C(Cn1ncc2c(=O)oc3ccccc3c21)NC1CC1 | inactive: 0.848% | – |
| CSc1ccccc1NC(=O)CSc1nnnn1-c1ccccc1SC | inactive: -3.92% | – |
| COc1ccccc1CCN1C(=S)NC(C)(C)CC1(C)O (stereo not given) | – | active: 5.62 µM |
| CCN(CC)c1cc(C)c2cc(NC(=O)c3ccccc3OC)ccc2n1 | – | inconclusive [inhibitor, single point] |
| CN(c1ccccc1)S(=O)(=O)c1cccc(C(=O)OCC(=O)NCCCN2CCCC2=O)c1 | inactive: 13.9% | – |
| Cc1cccc(C)c1NC(=S)NN(Cc1ccccc1)c1ccccc1 | – | inconclusive [inhibitor, partial curve, poor fit] |
| Cc1nc2ccccn2c1-c1ccnn1S(=O)(=O)c1ccc(F)cc1 | – | inconclusive [inhibitor, single point] |
| CCCOc1ccc(C(=O)NC(=S)Nc2nc3ccccc3s2)cc1 | – | inconclusive [inhibitor, single point] |
| COc1ccc2c(c1-c1c3c(cc(Br)c1OC)CCCC3)CCCC2 | inactive: -3.14% | – |
| Cn1c(C2CCCCC2)nc2cc(N)ccc21 | inactive: -2.52% | – |
| COc1cc2[nH]c(=S)nc(NCc3ccc(C)cc3)c2cc1OC | – | active: 17.8 µM |
| COc1ccc(NC(=O)N2CCOCC2)cc1 | – | inconclusive [activator, single point] |
| CC1CC(=O)N(c2ccc(NCCc3ccc(O)cc3)c([N+](=O)[O-])c2)C1=O (stereo not given) | inactive: -26.1% | – |
| COc1ccccc1C(=O)Nc1nc(-c2ccc(S(=O)(=O)N3CCOCC3)cc2)cs1 | – | active: 3.16 µM |
| Cc1ccc(OCc2nnc(SCC(=O)c3ccccc3)n2-c2ccccc2)cc1 | – | inconclusive [inhibitor, single point] |
| CC1CC2=C(NC(=S)NC2c2ccccc2F)/C(=C/c2ccccc2F)C1 (stereo not given) | – | active: 6.31 µM |
| O=C(CCCN1C(=O)/C(=C/c2ccccc2Cl)SC1=S)N1CCOCC1 | – | inconclusive [inhibitor, single point] |

| SMILES | activity, negative = inhibition | Potency |
| --- | --- | --- |
| O=c1sc(/C=N/Nc2ccccc2)c(Cl)n1Cc1ccccc1 | – | inconclusive [inhibitor, single point] |
| Cc1cccc(C)c1NC1=NC(=S)N(c2ccc(C(=O)O)cc2)C12CCCCC2 | inactive: 1.93% | – |
| C/C(CC(=O)Nc1ccccn1)=N\NC(=O)C(=O)Nc1ccccc1C | – | inconclusive [inhibitor, single point] |
| O=C(NC(Cc1ccccc1)c1nc2ccccc2[nH]1)c1ccc(Cl)c([N+](=O)[O-])c1 (stereo not given) | – | inconclusive [inhibitor, single point] |
| COc1ccc(/C(N)=N/OC(=O)c2ccc3c(c2)OCO3)cc1 | – | inconclusive [inhibitor, single point] |
| O=C(c1ccco1)[C@@H]1[C@@H]2C(=O)N(c3ccc(F)cc3)C(=O)[C@@H]2[C@H]2C=Cc3ccccc3N21 | – | inconclusive [inhibitor, single point] |
| OC(CN1CCCCC1)Cn1c2ccc(Cl)cc2c2cc(Cl)ccc21 (stereo not given) | – | inconclusive [inhibitor, single point] |
| CC1CN2C(c3ccc([N+](=O)[O-])cc3)=CSC2=N1 (stereo not given) | inactive: 5.1% | – |
| C=CCCC(=O)Nc1nc(C)c(-c2csc(Nc3cccc(OC)c3)n2)s1 | – | inconclusive [inhibitor, single point] |
| COC(=O)c1ccccc1NC(=S)NC(=O)COc1ccccc1Cl | – | inconclusive [inhibitor, single point] |
| CC(C)Oc1ccc(C(CC(=O)O)n2cnnn2)cc1 (stereo not given) | inactive: 7.91% | – |
| O=C(N/N=C/C=C/c1ccccc1)c1cccc(Br)c1 | – | active: 5.01 µM |
| CCN(CC)CCN(C(=O)CCS(=O)(=O)c1ccccc1)c1nc2cc3c(cc2s1)OCO3 | – | inconclusive [inhibitor, partial curve, poor fit] |
| C=CCOC(=O)C(C#N)c1nc2ccccc2nc1N1CCN(Cc2ccccc2)CC1 (stereo not given) | inactive: 1.72% | – |
| Cc1ccc(-n2c(=O)[nH]c3c(C(N)=O)nc(-c4ccc(C)o4)nc32)cc1 | – | inconclusive [inhibitor, single point] |
| Cc1cc(NC(=O)CCC(=O)N(Cc2cccnc2)C(C(=O)NC(C)(C)C)c2ccccc2Cl)no1 (stereo not given) | inactive: 0.0922% | – |
| Cc1cc(CNC(=O)Cc2ccccc2)c2ccccc2n1 | – | inconclusive [activator, single point] |
| O=C(Cc1ccccc1)Nc1cc2c(cc1Cl)OCCCO2 | inactive: 2.35% | – |
| CC(=O)NC(c1ccc(C)cc1)c1cc([N+](=O)[O-])c2cccnc2c1O (stereo not given) | – | active: 3.98 µM |
| CC(=O)N1CCN(C(=O)CSc2nc3c(cnn3-c3ccccc3)c(=O)[nH]2)CC1 | inactive: -8.43% | – |
| Cc1cccc(NC(=O)c2nc[nH]c2C(=O)N[C@@H](CCCCNC(=O)OC(C)(C)C)C(=O)OC(C)(C)C)c1 | – | active: 15.8 µM |
| COC(=O)c1ccc(NS(=O)(=O)c2ccc(SC)cc2)cc1 | – | inconclusive [inhibitor, single point] |
| CCOC(=O)N1CCN(S(=O)(=O)c2ccc(C(=O)Nc3sc4c(c3C(=O)OC)CCN(C)C4)cc2)CC1 | – | inconclusive [inhibitor, single point] |
| Cc1c(C(=O)Nc2ccc(F)cc2)c2ccccn2c1CCc1ccncc1 | – | inconclusive [inhibitor, single point] |
| O=C(Nc1nc2cc3c(cc2s1)OCO3)C1CCCCC1 | – | inconclusive [inhibitor, single point] |

| SMILES | activity, negative = inhibition | Potency |
| --- | --- | --- |
| CCCn1nnc(NC(=S)NC(=O)C(C)(C)C)n1 | – | active: 8.91 µM |
| Cc1cc(=O)oc2c(C)c(OCC(=O)N3CCN(c4ccc(F)cc4)CC3)ccc12 | inactive: 0.124% | – |
| O=S(=O)(O)c1ccc(O)cc1 | inactive: 5.76% | – |
| O=C(N/N=C/c1ccc(-c2cccc([N+](=O)[O-])c2)o1)c1ccccc1O | – | active: 2.24 µM |
| COc1c2ccccc2nc2ccccc12 | – | inconclusive [inhibitor, single point] |
| COc1ccc(-c2cc3nc4n(c(=O)c3s2)CCC4)cc1 | – | active: 1.58 µM |
| COc1ccccc1Nc1ccncc1[N+](=O)[O-] | – | inconclusive [inhibitor, single point] |
| Cc1ccc(OS(=O)Nc2cccc3nccnc23)cc1 (stereo not given) | – | active: 3.16 µM |
| Cc1[nH]n(-c2ccccc2)c(=O)c1N=Nc1cccc(S(=O)(=O)N2CCOCC2)c1 | – | inconclusive [inhibitor, full curve] |
| CC(=O)N1CCC(=NNS(=O)(=O)c2cccc([N+](=O)[O-])c2)CC1 | inactive: -1.7% | – |
| Cc1ccc(NC(=S)N(CCCN2CCN(C)CC2)Cc2cccs2)cc1 | inactive: 7.38% | – |
| Cc1c(OCc2ccc([N+](=O)[O-])cc2)ccc2c3c(c(=O)oc12)CCC3 | – | inconclusive [activator, partial curve, poor fit] |
| CC(Sc1nnc(CC(=O)Nc2ccccc2F)n1C)C(=O)Nc1nccs1 (stereo not given) | inactive: 2.07% | – |
| CCNC(=S)N1CCNC(=O)C1CC(=O)OC (stereo not given) | – | inconclusive [activator, single point] |
| CCN1CCCC1CNC(=O)C1c2ccccc2C(=O)N(CCOC)C1c1ccc(F)cc1 (stereo not given) | inactive: -5.1% | – |
| O=C(N/N=C/c1ccc(F)c(F)c1)c1cc2c(s1)-c1ccccc1CC2 | – | inconclusive [inhibitor, single point] |
| Cc1nn(C)c(C(=O)NNC(=O)Nc2cccc(C(F)(F)F)c2)c1Cl | – | inconclusive [inhibitor, single point] |
| O=C(NNC1=C(C(=O)C(F)(F)F)CCC1)c1ccccc1O | – | inconclusive [inhibitor, single point] |
| Cc1cccnc1Nc1nc(-c2ccc(O)cc2O)cs1 | – | inconclusive [inhibitor, single point] |
| NS(=O)(=O)c1ccc(CCNCc2cc(Cl)ccc2OCc2ccccc2)cc1 | – | inconclusive [inhibitor, single point] |
| Cc1ccc2oc(-c3cccc(NC(=O)c4ccc(Br)o4)c3C)nc2c1 | – | inconclusive [inhibitor, single point] |
| O=C1c2ccccc2C(=O)N1CCC(=O)N1CCCc2ccccc21 | – | inconclusive [inhibitor, single point] |
| O=C(COc1ccccc1/C=C1/NC(=O)NC1=O)Nc1ccccc1 | inactive: -10.1% | – |
| O=C(NNC(=S)NC(=O)c1cccnc1)c1ccc(Cl)cc1 | – | inconclusive [inhibitor, single point] |
| CCc1ccc(OCC(=O)Nc2ccncc2)c(Br)c1 | – | inconclusive [inhibitor, single point] |
